According to PubChem BioAssay (NCI):
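48-hour exposure; five concentrations; linearly interpolated endpoints. GI50 = concentration required for 50% inhibition of growth. At the TGI there is no net growth.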

What follows are compounds tested on NCI-H322M lung (assay: NCI anticancer screen, dose series, 48 h).

Going from CC(C)C(=O)Nc1ccc(-c2nc(-c3cccc(O)c3)c(-c3ccnc(Br)c3)[nH]2)cc1 to O=C(N/N=C/c1cccs1)c1[nH]c2ccc(Br)cc2c1-c1ccccc1, the GI50 falls from 1.22 µM to 0.503 µM (2.4-fold).

First: COc1ccc(NC2=C(Cl)C(=O)C(C)=C(C)C2=O)cc1
Second: CC1=C2C(=C[C@@](C)(COC(=O)c3ccc(S(=O)(=O)F)cc3)[C@@H]2O)C(=O)[C@](C)(O)C12CC2
The GI50 of the first is 14-fold higher: 33.3 µM for the first, 2.43 µM for the second.

First: CC(C)C(=O)Nc1ccc(-c2nc(-c3cccc(O)c3)c(-c3ccnc(Br)c3)[nH]2)cc1
Second: O=C(N/N=C/c1cccs1)c1[nH]c2ccc(Br)cc2c1-c1ccccc1
The TGI of the first is lower: 9.96 µM for the first, greater than 100 µM for the second.

Going from COc1ccc(NC2=C(Cl)C(=O)C(C)=C(C)C2=O)cc1 to CC1=C2C(=C[C@@](C)(COC(=O)c3ccc(S(=O)(=O)F)cc3)[C@@H]2O)C(=O)[C@](C)(O)C12CC2, the TGI falls from greater than 100 µM to 8.29 µM.
